Source: PubChem BioAssay AID1461 (National Center for Advancing Translational Sciences (NCATS), 2008)
Among all 220,000 compounds or so, about 2,300 (1%) were called active. Inconclusive results, whose numbers are uncertain, are shown with a selection of clear calls. The call rests on the fitted dose curve; in most records, active means well fitted inhibition curve with a large enough effect; inconclusive means small, poorly fitted or top-dose-only effect, or effect the other way; inactive means no such curve, though single readings can be large or run the other way. Potencies of inconclusive entries are left out as doubtful fits.

Molecular target: Neuropeptide S receptor (Homo sapiens) (UniProt Q6W5P4)
Chain of UniProt Q6W5P4 (Q6W5P4 whole entry, looked up): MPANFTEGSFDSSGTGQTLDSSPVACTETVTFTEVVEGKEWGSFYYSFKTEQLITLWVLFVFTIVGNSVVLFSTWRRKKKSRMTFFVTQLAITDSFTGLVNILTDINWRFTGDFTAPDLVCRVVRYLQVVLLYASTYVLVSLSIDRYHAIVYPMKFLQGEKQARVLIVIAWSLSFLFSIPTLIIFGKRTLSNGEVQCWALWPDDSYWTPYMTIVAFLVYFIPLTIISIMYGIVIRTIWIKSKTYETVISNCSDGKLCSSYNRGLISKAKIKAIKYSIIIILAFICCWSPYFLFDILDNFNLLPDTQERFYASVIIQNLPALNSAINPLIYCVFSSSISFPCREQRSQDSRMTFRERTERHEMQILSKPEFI
Assay: qHTS Assay for Antagonists of the Neuropeptide S Receptor: cAMP Signal Transduction; further: nearly all actives have a fitted effect of over 50% in size
Conditions: CHO-NPSR cells, cAMP TR-FRET, antagonist mode; series mostly up to 38.3 µM
Potency means the concentration at half of the fitted maximal effect; tags describe the fitted curve by direction and shape.

Structure (SMILES) | Potency
CC1(C)Cc2c(sc3c2c(=N)n(Cc2ccco2)c(=O)n3Cc2ccccc2)CO1 | inconclusive [inhibitor, single point]
O=C(CSc1ncn[nH]1)Nc1ccc(Cl)c(Cl)c1 | inconclusive [activator, single point]
Cn1c2ccccc2c(=O)c2c(=O)n(Cc3ccccc3)c(-c3ccc(F)cc3)nc21 | inconclusive [activator, single point]
CCOC(=O)c1c(NC(=O)CC2SC(N)=NC2=O)sc2c1CCCC2 (stereo not given) | inconclusive [inhibitor, single point]
CCn1c(SCC(=O)Nc2cc(C)on2)nnc1-c1ccncc1 | inactive
O=C1NN=C(CSc2n[nH]c(=S)s2)CS1 | inactive
C=CCSc1nc2ccccc2n1C(=O)/C=C/c1cc(OC)c(OC)c(OC)c1 | active: 2.51 µM
Cc1ccc(Cn2nnc3c(=O)n(Cc4cc(C)ccc4C)cnc32)cc1 | inactive
CCOC(=O)C1(P(=O)(c2ccccc2)c2ccccc2)CCC1 | inactive
Cc1nc(N2CCC(C)CC2)c2oc3ccccc3c2n1 | inconclusive [inhibitor, single point]
COCCCN(C(=S)Nc1cc(Cl)cc(Cl)c1)C(C)c1ccncc1 (stereo not given) | inconclusive [inhibitor, partial curve]
COc1cc(/C=C2\SC(=O)NC2=O)ccc1Oc1ccc([N+](=O)[O-])cc1[N+](=O)[O-] | active: 10 µM
O=[N+]([O-])c1ccc(NC(=S)NCCc2ccc(Cl)cc2)cc1 | inconclusive [inhibitor, single point]
COc1ccc(Cl)cc1NC(=S)NNC(=O)C1(C)CC1(Cl)Cl (stereo not given) | inactive
CC(C)OC(=O)CC(=O)CSc1nc2c(c(-c3cccs3)c1C#N)CCC2 | inactive
COc1cccc(CN2C(=O)CCC2(C)C(=O)NC2CCCCCC2)c1 (stereo not given) | inconclusive [inhibitor, single point]
CCCCCc1cc(=O)oc2c(C(CCN3CCCC(C)C3)c3ccc4c(c3)OCO4)c(OC)cc(OC)c12 (stereo not given) | inconclusive [inhibitor, single point]
O=S(=O)(c1cccs1)N1CCN(Cc2nc3ccccc3s2)CC1 | inconclusive [inhibitor, partial curve]
CC1(C)Cc2c(c(N3CCOCC3)nc3sc4c(NCc5ccco5)nnnc4c23)CS1 | inconclusive [inhibitor, partial curve]
CCCCCCCc1ccc(C2NC(=S)NC3=C2C(=O)c2ccccc23)cc1 (stereo not given) | inactive
CCOC(=O)c1cnc(-n2nc(C)cc2C)nc1NC1CCCCC1 | inconclusive [inhibitor, partial curve]
O=C(/C=C/c1cccc(Cl)c1)NCCc1ccccc1 | inactive
CCCOc1ccc(/C=N/NC(=O)C2CCCN2S(=O)(=O)c2ccc(Cl)cc2)cc1 (stereo not given) | inconclusive [inhibitor, single point]

Structure (SMILES) | Potency
Cc1cc(C)c(NC(=O)C(C)c2cccc(C(=O)c3ccccc3)c2)c(C)c1 (stereo not given) | inconclusive [inhibitor, single point]
O=C(Nc1ccc([N+](=O)[O-])cc1)Nc1ccc(OC(F)F)c(Cl)c1 | active: 10 µM
OCC1(Cc2ccc(Cl)cc2)CCN(Cc2ccccc2F)CC1 | inactive
COCC1CCCN(Cc2nc(C(c3ccccc3)c3ccccc3)no2)C1 (stereo not given) | inconclusive [activator, partial curve]
CC(C)(C)OC(=O)N1CCC[C@H]1c1nnc(SCc2ccc(Cl)cc2Cl)o1 | inconclusive [inhibitor, single point]
C=CCc1cccc(/C=N/NC(=O)CNc2cccc3ccccc23)c1O | inactive
Cc1cccc(NC(=O)N(Cc2cc3cc(C)ccc3[nH]c2=O)CC2COCCO2)c1 (stereo not given) | inactive
O=C(Nc1ccccc1)C1=C(c2ccccc2)S(=O)(=O)CCS1(=O)=O | inconclusive [inhibitor, full curve, poor fit]
Clc1ccccc1Cn1c(/C=C/c2ccco2)nc2ccccc21 | inconclusive [inhibitor, single point]
CCOc1ccccc1C(=O)N1CCN(C(c2ccccc2)c2ccccc2)CC1 | inconclusive [inhibitor, partial curve]
Cc1ccc(-c2nnc(Nc3ccccc3)c3ccccc23)cc1S(=O)(=O)NCC1CCCO1 (stereo not given) | inconclusive [inhibitor, single point]
CC(C(=O)OCC(=O)Nc1cccc(S(=O)(=O)N2CCOCC2)c1)N1C(=O)c2ccccc2C1=O (stereo not given) | inactive
CCc1nnc(NC(=O)CSc2nc3c(cc2C#N)CCC3)s1 | inconclusive [inhibitor, single point]
O=C(/C(=C/c1ccc(Cl)cc1)c1nc2ccccc2[nH]1)c1cccs1 | active: 2 µM
CCCSC(=S)c1c(C)[nH]n(-c2ccccc2)c1=O | inconclusive [activator, partial curve]
CCN(CC)S(=O)(=O)c1ccc(N2CCOCC2)c(NC(=S)NC(=O)c2ccco2)c1 | inconclusive [inhibitor, single point]
COc1cccc(NC(=O)C2CCCN(S(=O)(=O)c3ccc(-n4cnnn4)cc3)C2)c1 (stereo not given) | inconclusive [inhibitor, full curve, poor fit]
CCOC(=O)/C(C#N)=C/c1cc2ccccc2nc1N1CCCCC1 | inconclusive [inhibitor, single point]
COc1cc(/C=C(\NC(C)=O)C(=O)NC(C)(C)CC(C)(C)C)ccc1OC(C)=O | inactive
CCc1c(O)nc(SCC(=O)Nc2ccc(C)cc2)n(C2CCCCC2)c1=O | inconclusive [inhibitor, single point]
Cc1cc(C(=O)NCc2ccccc2Cl)n(-c2ccccc2)n1 | inactive
CC(=O)c1c(C(C)=O)c(C)n(-c2nc(-c3ccc(Br)cc3)c(C)s2)c1C | inconclusive [inhibitor, single point]
